Measurements reported in the supplement of paper PMC8728848.
This is one part of the list.

Assays:
Assay in all cases: glycan array binding signal (z-score within array); higher = stronger binding
Settings in all cases: glycan notation: IUPAC condensed, linker removed
[1] = target: Gal(b1-4)GlcNAc(b1-3)Gal(b1-4)Glc
Summary of the method: (§1)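 Arrays were curated from the Consortium for Functional Glycomics database, 3228 in total, and kept only where the protein sequence was available. Binding is expressed as a within-array Z-score. This score was averaged across arrays of the same protein sequence at different concentrations or buffers and across linkers, and negative values can be read as non-binding.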

[2] = target: Gal(b1-4)GlcNAc(b1-3)Gal(b1-4)GlcNAc
Summary of the method: as §1

[3] = target: Gal(b1-4)GlcNAc(b1-3)Gal(b1-4)GlcNAc(b1-2)Man(a1-3)[Gal(b1-4)GlcNAc(b1-3)Gal(b1-4)GlcNAc(b1-2)Man(a1-6)]Man(b1-4)GlcNAc(b1-4)GlcNAc
Summary of the method: as §1

[4] = target: Gal(b1-4)GlcNAc(b1-3)Gal(b1-4)GlcNAc(b1-2)Man(a1-3)[Gal(b1-4)GlcNAc(b1-3)Gal(b1-4)GlcNAc(b1-2)Man(a1-6)]Man(b1-4)GlcNAc(b1-4)[Fuc(a1-6)]GlcNAc
Summary of the method: as §1

[5] = target: Gal(b1-4)GlcNAc(b1-3)Gal(b1-4)GlcNAc(b1-2)[Gal(b1-4)GlcNAc(b1-3)Gal(b1-4)GlcNAc(b1-6)]Man(a1-6)[Gal(b1-4)GlcNAc(b1-3)Gal(b1-4)GlcNAc(b1-2)Man(a1-3)]Man(b1-4)GlcNAc(b1-4)GlcNAc
Summary of the method: as §1

[6] = target: Gal(b1-4)GlcNAc(b1-3)Gal(b1-4)GlcNAc(b1-2)[Gal(b1-4)GlcNAc(b1-3)Gal(b1-4)GlcNAc(b1-6)]Man(a1-6)[Gal(b1-4)GlcNAc(b1-3)Gal(b1-4)GlcNAc(b1-2)Man(a1-3)]Man(b1-4)GlcNAc(b1-4)[Fuc(a1-6)]GlcNAc
Summary of the method: as §1

[7] = target: Gal(b1-4)GlcNAc(b1-3)Gal(b1-4)GlcNAc(b1-3)Gal(b1-4)GlcNAc
Summary of the method: as §1

[8] = target: Gal(b1-4)GlcNAc(b1-3)Gal(b1-4)GlcNAc(b1-3)Gal(b1-4)GlcNAc(b1-2)Man(a1-3)[Gal(b1-4)GlcNAc(b1-3)Gal(b1-4)GlcNAc(b1-3)Gal(b1-4)GlcNAc(b1-2)Man(a1-6)]Man(b1-4)GlcNAc(b1-4)GlcNAc
Summary of the method: as §1

[9] = target: Gal(b1-4)GlcNAc(b1-3)Gal(b1-4)GlcNAc(b1-3)Gal(b1-4)GlcNAc(b1-2)Man(a1-3)[Gal(b1-4)GlcNAc(b1-3)Gal(b1-4)GlcNAc(b1-3)Gal(b1-4)GlcNAc(b1-2)Man(a1-6)]Man(b1-4)GlcNAc(b1-4)[Fuc(a1-6)]GlcNAc
Summary of the method: as §1

[10] = target: Gal(b1-4)GlcNAc(b1-3)Gal(b1-4)GlcNAc(b1-3)Gal(b1-4)GlcNAc(b1-2)[Gal(b1-4)GlcNAc(b1-3)Gal(b1-4)GlcNAc(b1-3)Gal(b1-4)GlcNAc(b1-6)]Man(a1-6)[Gal(b1-4)GlcNAc(b1-3)Gal(b1-4)GlcNAc(b1-3)Gal(b1-4)GlcNAc(b1-2)Man(a1-3)]Man(b1-4)GlcNAc(b1-4)[Fuc(a1-6)]GlcNAc
Summary of the method: as §1

[11] = target: Gal(b1-4)GlcNAc(b1-3)Gal(b1-4)GlcNAc(b1-3)Gal(b1-4)GlcNAc(b1-3)Gal(b1-4)GlcNAc(b1-2)Man(a1-3)[Gal(b1-4)GlcNAc(b1-3)Gal(b1-4)GlcNAc(b1-3)Gal(b1-4)GlcNAc(b1-3)Gal(b1-4)GlcNAc(b1-2)Man(a1-6)]Man(b1-4)GlcNAc(b1-4)GlcNAc
Summary of the method: as §1

[12] = target: Gal(b1-4)GlcNAc(b1-3)Gal(b1-4)GlcNAc(b1-3)Gal(b1-4)GlcNAc(b1-3)Gal(b1-4)GlcNAc(b1-2)Man(a1-3)[Gal(b1-4)GlcNAc(b1-3)Gal(b1-4)GlcNAc(b1-3)Gal(b1-4)GlcNAc(b1-3)Gal(b1-4)GlcNAc(b1-2)Man(a1-6)]Man(b1-4)GlcNAc(b1-4)[Fuc(a1-6)]GlcNAc
Summary of the method: as §1

[13] = target: Gal(b1-4)GlcNAc(b1-3)Gal(b1-4)GlcNAc(b1-3)Gal(b1-4)GlcNAc(b1-3)Gal(b1-4)GlcNAc(b1-2)[Gal(b1-4)GlcNAc(b1-3)Gal(b1-4)GlcNAc(b1-3)Gal(b1-4)GlcNAc(b1-3)Gal(b1-4)GlcNAc(b1-6)]Man(a1-6)[Gal(b1-4)GlcNAc(b1-3)Gal(b1-4)GlcNAc(b1-3)Gal(b1-4)GlcNAc(b1-3)Gal(b1-4)GlcNAc(b1-2)Man(a1-3)]Man(b1-4)GlcNAc(b1-4)[Fuc(a1-6)]GlcNAc
Summary of the method: as §1

[14] = target: Gal(b1-4)GlcNAc(b1-3)Gal(b1-4)GlcNAc(b1-3)Gal(b1-4)GlcNAc(b1-3)Gal(b1-4)GlcNAc(b1-3)Gal(b1-4)GlcNAc(b1-2)Man(a1-3)[Gal(b1-4)GlcNAc(b1-3)Gal(b1-4)GlcNAc(b1-3)Gal(b1-4)GlcNAc(b1-3)Gal(b1-4)GlcNAc(b1-3)Gal(b1-4)GlcNAc(b1-2)Man(a1-6)]Man(b1-4)GlcNAc(b1-4)GlcNAc
Summary of the method: as §1

[15] = target: Gal(b1-4)GlcNAc(b1-3)Gal(b1-4)GlcNAc(b1-3)Gal(b1-4)GlcNAc(b1-3)Gal(b1-4)GlcNAc(b1-3)Gal(b1-4)GlcNAc(b1-2)Man(a1-3)[Gal(b1-4)GlcNAc(b1-3)Gal(b1-4)GlcNAc(b1-3)Gal(b1-4)GlcNAc(b1-3)Gal(b1-4)GlcNAc(b1-3)Gal(b1-4)GlcNAc(b1-2)Man(a1-6)]Man(b1-4)GlcNAc(b1-4)[Fuc(a1-6)]GlcNAc
Summary of the method: as §1

[16] = target: Gal(b1-4)GlcNAc(b1-3)Gal(b1-4)GlcNAc(b1-3)Gal(b1-4)GlcNAc(b1-3)Gal(b1-4)GlcNAc(b1-3)Gal(b1-4)GlcNAc(b1-2)[Gal(b1-4)GlcNAc(b1-3)Gal(b1-4)GlcNAc(b1-3)Gal(b1-4)GlcNAc(b1-3)Gal(b1-4)GlcNAc(b1-3)Gal(b1-4)GlcNAc(b1-6)]Man(a1-6)[Gal(b1-4)GlcNAc(b1-3)Gal(b1-4)GlcNAc(b1-3)Gal(b1-4)GlcNAc(b1-3)Gal(b1-4)GlcNAc(b1-3)Gal(b1-4)GlcNAc(b1-2)Man(a1-3)]Man(b1-4)GlcNAc(b1-4)[Fuc(a1-6)]GlcNAc
Summary of the method: as §1

[17] = target: Gal(b1-4)GlcNAc(b1-3)Gal(b1-4)GlcNAc(b1-3)Gal(b1-4)GlcNAc(b1-3)Gal(b1-4)GlcNAc(b1-3)Gal(b1-4)GlcNAc(b1-3)Gal(b1-4)GlcNAc(b1-2)Man(a1-3)[Gal(b1-4)GlcNAc(b1-3)Gal(b1-4)GlcNAc(b1-3)Gal(b1-4)GlcNAc(b1-3)Gal(b1-4)GlcNAc(b1-3)Gal(b1-4)GlcNAc(b1-3)Gal(b1-4)GlcNAc(b1-2)Man(a1-6)]Man(b1-4)GlcNAc(b1-4)GlcNAc
Summary of the method: as §1

[18] = target: Gal(b1-4)GlcNAc(b1-3)Gal(b1-4)GlcNAc(b1-3)GalNAc
Summary of the method: as §1

[19] = target: Gal(b1-4)GlcNAc(b1-3)Gal(b1-4)GlcNAc(b1-3)[Gal(b1-4)GlcNAc(b1-3)Gal(b1-4)GlcNAc(b1-6)]GalNAc
Summary of the method: as §1

B1: Cohesin-mDCIR (Macaca mulatta) (protein)
chain: GLDDLDAVRIKVDTVNAKPGDTVRIPVRFSGIPSKGIANCDFVYSYDPNVLEIIEIEPGDIIVDPNPDKSFDTAVYPDRKIIVFLFAEDSGTGAYAITKDGVFATIVAKVKEGAPNGLSVIKFVEVGGFANNDLVEQKTQFFDGGVNVGDTTEPATPTTPVTTPTTTDDLDAASFQKYSQLLEKMTTKDLVHTTLECVKKNMTTEETAWSCCPKNWKPFSSNCYFISTESASWQKSEKDCARMEAHLLVINTREEQDFIFQNLQEESAYFVGLSDPEGQRHWQWVDRTPYNESSTFWHPHEPSDPDERCVVLNFRKTPKRWGWNDVHCIVHQRSVCEMMKIHLHHHHHH
- glycan array binding signal (z-score) [1]: -0.311
- glycan array binding signal (z-score) [2]: -0.251
- glycan array binding signal (z-score) [3]: 4.39
- glycan array binding signal (z-score) [4]: -0.21
- glycan array binding signal (z-score) [5]: 0.916
- glycan array binding signal (z-score) [6]: -0.136
- glycan array binding signal (z-score) [7]: -0.346
- glycan array binding signal (z-score) [8]: -0.081
- glycan array binding signal (z-score) [9]: 0.022
- glycan array binding signal (z-score) [10]: 0.012
- glycan array binding signal (z-score) [11]: -0.061
- glycan array binding signal (z-score) [12]: 0.53
- glycan array binding signal (z-score) [13]: 0.971
- glycan array binding signal (z-score) [14]: 0.152
- glycan array binding signal (z-score) [15]: 0.068
- glycan array binding signal (z-score) [16]: 0.462
- glycan array binding signal (z-score) [17]: -0.273
- glycan array binding signal (z-score) [18]: -0.296
- glycan array binding signal (z-score) [19]: -0.117
